Some of the results follow.
Key:
HSkMC = human skeletal muscle cells; assay: cytotoxicity call (relative viability < 0.9); details: 10 µM
HepG2 = assay: cytotoxicity call (relative viability < 0.9); details: 10 µM
S. aureus RN4220 = assay: growth inhibition call (relative growth <= 0.2); details: 50 µM

SMILES: COCCOC(=O)N1C(=O)[C@@]2(c3cc(C#CCC(C(=O)OC)C(=O)OC)ccc31)[C@H](C(=O)NC[C@H](O)c1ccccc1)[C@H]1C(=O)O[C@H](c3ccccc3)[C@H](c3ccccc3)N1[C@@H]2c1ccc(OCCO)cc1
- cytotoxicity call (HSkMC): inactive
- cytotoxicity call (HepG2): inactive
- growth inhibition call (S. aureus RN4220): inactive

SMILES: CS(=O)(=O)N1C[C@H](O)COC[C@@H]2O[C@@H](CC(=O)NCc3ccccc3)CC[C@H]21
- cytotoxicity call (HSkMC): inactive
- cytotoxicity call (HepG2): inactive
- growth inhibition call (S. aureus RN4220): inactive

SMILES: C[C@H](CO)N1C[C@H](C)[C@H](CN(C)Cc2ccc(-c3ccccc3)cc2)Oc2ccc(NC(=O)CCC(F)(F)F)cc2C1=O
- cytotoxicity call (HSkMC): inactive
- cytotoxicity call (HepG2): active
- growth inhibition call (S. aureus RN4220): inactive

SMILES: C[C@@H]1CN([C@H](C)CO)C(=O)c2cc(NS(=O)(=O)c3cn(C)cn3)ccc2O[C@@H]1CN(C)C(=O)Nc1ccccc1
- cytotoxicity call (HSkMC): inactive
- cytotoxicity call (HepG2): inactive
- growth inhibition call (S. aureus RN4220): inactive

SMILES: CCNC1CC(N)C(OC2OC(CN)=CCC2N)C(O)C1OC1OCC(C)(O)C(NC)C1O.O=S(=O)(O)O.O=S(=O)(O)O (centres undefined)
- cytotoxicity call (HSkMC): inactive
- cytotoxicity call (HepG2): inactive
- growth inhibition call (S. aureus RN4220): inactive

SMILES: CN1CCN(C(=O)C[C@@H]2CC[C@@H]3[C@H](COC[C@H](O)CN3S(=O)(=O)c3cccc(Cl)c3)O2)CC1
- cytotoxicity call (HSkMC): inactive
- cytotoxicity call (HepG2): inactive
- growth inhibition call (S. aureus RN4220): inactive

SMILES: C[C@@H]1CCCCO[C@@H](CN(C)S(=O)(=O)c2ccc(Cl)cc2)[C@@H](C)CN([C@@H](C)CO)C(=O)c2cc(NC(=O)c3ccncc3)ccc2O1
- cytotoxicity call (HSkMC): inactive
- cytotoxicity call (HepG2): inactive
- growth inhibition call (S. aureus RN4220): inactive

SMILES: COc1ccc(S(=O)(=O)Nc2ccc3c(c2)C(=O)N([C@@H](C)CO)C[C@@H](C)[C@@H](CN(C)S(C)(=O)=O)OCCCC[C@@H](C)O3)cc1
- cytotoxicity call (HSkMC): inactive
- cytotoxicity call (HepG2): inactive
- growth inhibition call (S. aureus RN4220): inactive

SMILES: C[C@@H]1CN([C@@H](C)CO)S(=O)(=O)c2ccc(C#CC3(O)CCCC3)cc2O[C@@H]1CN(C)C(=O)c1cccnc1
- cytotoxicity call (HSkMC): inactive
- cytotoxicity call (HepG2): inactive
- growth inhibition call (S. aureus RN4220): inactive

SMILES: C[C@@H]1CN([C@H](C)CO)C(=O)c2cccc(NC(=O)C3CCOCC3)c2O[C@@H]1CN(C)C(=O)Nc1ccccc1
- cytotoxicity call (HSkMC): inactive
- cytotoxicity call (HepG2): inactive
- growth inhibition call (S. aureus RN4220): inactive

SMILES: C[C@@H]1CN([C@H](C)CO)C(=O)CCCn2cc(nn2)CO[C@H]1CN(C)S(=O)(=O)c1ccc(-c2ccccc2)cc1
- cytotoxicity call (HSkMC): inactive
- cytotoxicity call (HepG2): inactive
- growth inhibition call (S. aureus RN4220): inactive

SMILES: COc1ccccc1C#Cc1cnc2c(c1)C(=O)N([C@H](C)CO)C[C@@H](C)[C@@H](CN(C)S(=O)(=O)c1cn(C)cn1)O2
- cytotoxicity call (HSkMC): inactive
- cytotoxicity call (HepG2): inactive
- growth inhibition call (S. aureus RN4220): inactive

SMILES: COC(=O)c1cn(C[C@@H](Cc2ccccc2)NC(=O)N[C@H](CO)CCc2oc(C(C)=O)c(C(=O)OC)c2C(=O)OC)nn1
- cytotoxicity call (HSkMC): inactive
- cytotoxicity call (HepG2): inactive
- growth inhibition call (S. aureus RN4220): inactive

SMILES: CCOC(=O)N1CCN(C[C@@H](O)Cn2c(=O)c3c(ncn3C)n(C)c2=O)CC1
- cytotoxicity call (HSkMC): inactive
- cytotoxicity call (HepG2): inactive
- growth inhibition call (S. aureus RN4220): inactive

SMILES: NNC(=O)c1cccc(C(=O)NO)c1
- cytotoxicity call (HSkMC): inactive
- cytotoxicity call (HepG2): inactive
- growth inhibition call (S. aureus RN4220): inactive

SMILES: Cc1ccc(S(=O)(=O)N(C)C[C@H]2Oc3ccc(NC(=O)Cn4cnnn4)cc3CC(=O)N([C@@H](C)CO)C[C@@H]2C)cc1
- cytotoxicity call (HSkMC): inactive
- cytotoxicity call (HepG2): inactive
- growth inhibition call (S. aureus RN4220): inactive

SMILES: COc1ccc(S(=O)(=O)N[C@@H]2C=C[C@H](CC(=O)N3CCN(c4ccccc4)CC3)O[C@H]2CO)cc1
- cytotoxicity call (HSkMC): inactive
- cytotoxicity call (HepG2): inactive
- growth inhibition call (S. aureus RN4220): inactive

SMILES: NCCCCCc1cnc[nH]1
- cytotoxicity call (HSkMC): inactive
- cytotoxicity call (HepG2): inactive
- growth inhibition call (S. aureus RN4220): inactive

SMILES: CC(C)N1CC[C@H](CNCc2ccc(Oc3ccccc3)cc2)Oc2c(NC(=O)c3ccncc3)cccc2C1=O
- cytotoxicity call (HSkMC): inactive
- cytotoxicity call (HepG2): inactive
- growth inhibition call (S. aureus RN4220): inactive

SMILES: Cc1ccc(Nc2ncc3c(n2)N(C)C(=O)N(c2cc(NC(=O)c4cccc(C(F)(F)F)c4)ccc2C)C3)cn1
- cytotoxicity call (HSkMC): active
- cytotoxicity call (HepG2): active
- growth inhibition call (S. aureus RN4220): inactive

SMILES: CC(C)NC(=O)c1cccc2cccc(Sc3ccccc3)c12
- cytotoxicity call (HSkMC): inactive
- cytotoxicity call (HepG2): inactive
- growth inhibition call (S. aureus RN4220): inactive

SMILES: C[C@@H]1CN(C(=N)N)C[C@H](C)O1
- cytotoxicity call (HSkMC): inactive
- cytotoxicity call (HepG2): inactive
- growth inhibition call (S. aureus RN4220): inactive

SMILES: COC(=O)[C@H]1CCC(=O)N1
- cytotoxicity call (HSkMC): inactive
- cytotoxicity call (HepG2): inactive
- growth inhibition call (S. aureus RN4220): inactive

SMILES: S=C(Nc1ccccc1)Nc1ccc2c(c1)oc1ccccc12
- cytotoxicity call (HSkMC): inactive
- cytotoxicity call (HepG2): inactive
- growth inhibition call (S. aureus RN4220): inactive

SMILES: C[C@@H]1CCCCO[C@@H](CN(C)Cc2ccc(C(F)(F)F)cc2)[C@H](C)CN([C@H](C)CO)C(=O)c2cc(NC(=O)CCC(F)(F)F)ccc2O1
- cytotoxicity call (HSkMC): inactive
- cytotoxicity call (HepG2): inactive
- growth inhibition call (S. aureus RN4220): inactive

SMILES: C[C@@H]1CCCCO[C@H](CN(C)Cc2ccc(C(F)(F)F)cc2)[C@H](C)CN([C@H](C)CO)C(=O)c2cc(N(C)C)ccc2O1
- cytotoxicity call (HSkMC): inactive
- cytotoxicity call (HepG2): active
- growth inhibition call (S. aureus RN4220): inactive

SMILES: C[C@@H]1CCCCO[C@H](CN(C)S(=O)(=O)c2cccs2)[C@H](C)CN([C@H](C)CO)C(=O)c2cc(NC(=O)Nc3ccc(F)cc3)ccc2O1
- cytotoxicity call (HSkMC): inactive
- cytotoxicity call (HepG2): active
- growth inhibition call (S. aureus RN4220): inactive

SMILES: C[C@@H]1CN([C@@H](C)CO)C(=O)c2cccc(NS(=O)(=O)c3cccs3)c2O[C@@H]1CN(C)Cc1ccncc1
- cytotoxicity call (HSkMC): inactive
- cytotoxicity call (HepG2): inactive
- growth inhibition call (S. aureus RN4220): inactive
